Out of some 310,000 compounds screened, about 2,200 (0.71%) showed an effect of 50% or more. The effect is printed as a negative number. Some of the results follow.
Each molecule was assayed against human ether-à-go-go-related gene (hERG) potassium channel (human, UniProt Q12809) (assay: primary screen, population patch clamp on CHO cells stably expressing hERG).
human ether-à-go-go-related gene (hERG) potassium channel, sequence (Q12809 whole entry, looked up): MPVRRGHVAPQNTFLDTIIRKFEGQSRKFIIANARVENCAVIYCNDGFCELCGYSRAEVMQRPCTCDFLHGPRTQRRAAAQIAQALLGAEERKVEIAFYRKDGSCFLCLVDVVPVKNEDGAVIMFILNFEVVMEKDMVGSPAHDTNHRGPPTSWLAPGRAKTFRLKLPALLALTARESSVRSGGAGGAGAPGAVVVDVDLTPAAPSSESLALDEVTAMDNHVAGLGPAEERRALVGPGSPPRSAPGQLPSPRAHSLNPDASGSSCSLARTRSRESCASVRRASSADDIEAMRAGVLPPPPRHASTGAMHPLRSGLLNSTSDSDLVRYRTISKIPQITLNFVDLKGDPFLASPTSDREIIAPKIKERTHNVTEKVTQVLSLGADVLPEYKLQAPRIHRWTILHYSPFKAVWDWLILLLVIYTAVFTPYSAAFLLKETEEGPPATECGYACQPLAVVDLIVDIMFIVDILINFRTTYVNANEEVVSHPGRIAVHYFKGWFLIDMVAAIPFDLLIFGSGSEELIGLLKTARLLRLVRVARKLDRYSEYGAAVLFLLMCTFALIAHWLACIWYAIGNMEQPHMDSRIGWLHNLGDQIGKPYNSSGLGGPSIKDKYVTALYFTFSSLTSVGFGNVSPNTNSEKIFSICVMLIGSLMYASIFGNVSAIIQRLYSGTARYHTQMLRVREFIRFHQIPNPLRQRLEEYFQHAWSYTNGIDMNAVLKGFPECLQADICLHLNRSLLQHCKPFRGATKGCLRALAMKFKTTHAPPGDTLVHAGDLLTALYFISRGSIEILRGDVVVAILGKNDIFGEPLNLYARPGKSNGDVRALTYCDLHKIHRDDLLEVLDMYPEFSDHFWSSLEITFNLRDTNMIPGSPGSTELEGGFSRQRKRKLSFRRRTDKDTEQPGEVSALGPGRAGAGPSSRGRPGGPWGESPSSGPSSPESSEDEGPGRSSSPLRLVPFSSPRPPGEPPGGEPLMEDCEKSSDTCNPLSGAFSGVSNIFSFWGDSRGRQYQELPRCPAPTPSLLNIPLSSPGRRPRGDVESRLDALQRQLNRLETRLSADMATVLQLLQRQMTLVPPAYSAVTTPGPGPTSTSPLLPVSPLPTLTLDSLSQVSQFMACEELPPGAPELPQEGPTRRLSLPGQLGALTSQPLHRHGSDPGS

Structure (SMILES)	hERG current change (%, negative = inhibition) at 1uM [%]
O=C(O)CSc1ncnc2nc[nH]c12	8.63
CCOC(=O)N1CCN(C(=O)COC(=O)Cc2ccc(OC)cc2)CC1	11.7
CC1CCCC(C)N1CC(O)COCC1COc2ccccc2O1.Cl (stereo not shown)	-1.88
CCC(C)[C@H](NC(=O)OC(C)(C)C)C(=O)N/N=C/c1ccc2nccnc2c1 (stereo partly shown)	-6.23
O=C(O)COc1c(-c2ccccc2)oc2ccccc2c1=O	8.93
O=C(Nc1nccs1)C1CC2CCC1C2 (stereo not shown)	7.4
Cc1cc(Br)ccc1NC(=O)CN(C)C(=O)CSCc1ccccc1	4.67
O=C(Nc1nncs1)c1ccc(S(=O)(=O)c2ccccc2)cc1	7.42
Cn1c(NCc2ccccc2)nc2c1c(=O)n(Cc1ccc(Br)cc1)c(=O)n2C	17.6
CC(=O)N1CCCc2cc(S(=O)(=O)N(C)Cc3ccccc3)ccc21	3.69
Cc1cc(-c2nn(-c3ccccc3F)cc2CN2CCC(O)CC2)c(C)s1	-0.852
Cc1ccc(NC(=O)CSCC#N)cc1	9.95
COCc1cc(OC(=O)N(C)C)nc2c1c(C)nn2C	6.29
O=C(NCc1ccco1)C1CCN(c2nnc(-n3cccc3)s2)CC1	-19.9
CCOc1ccccc1NC(=O)c1ccc2nccnc2c1	24.3
C/C(=N\Nc1cccc([N+](=O)[O-])c1)c1cc(F)ccc1O	12.7
Cc1ccc(-c2csc3ncn(-n4c(C)ccc4C)c(=O)c23)o1	6.71
CCC(=O)c1cc(F)c(N2CCN(CC)CC2)cc1C	8.74
Cc1ccc(C(=O)COC(=O)CCc2ccc(S(=O)(=O)N3CCCCC3)cc2)cc1	4.49
CCNc1nc(N2CCOCC2)nc(N(c2ccccc2)c2ccccc2)n1	5.11
COc1ccc(N2CCC(CNC(=O)Nc3ccc(C)c(C)c3)C2)cc1 (stereo not shown)	10.3
CCCN(Cc1nnc(-c2ccccc2Cl)o1)C(=O)c1oc2ccccc2c1C	19.9

Structure (SMILES)	hERG current change (%, negative = inhibition) at 1uM [%]
Cc1ccc(C)c(N2CCN(C(=O)Cc3ccc(NC4=NC5CS(=O)(=O)CC5S4)cc3)CC2)c1 (stereo not shown)	7.15
CCN(CC)S(=O)(=O)c1ccc(NS(=O)(=O)c2ccc(O)c([N+](=O)[O-])c2)cc1	7.67
Cc1cc(C)c(S(=O)(=O)N2CCN(S(=O)(=O)N3CCCCCC3)CC2)c(C)c1	9.03
CC(=O)Nc1cc(C(N)=O)c(Cl)cc1Cl	1.43
COC(=O)C(C(=O)OC)C(C[N+](=O)[O-])c1ccc(OC)cc1 (stereo not shown)	0.246
O=C(Nc1nc(-c2ccc(Cl)s2)cs1)c1cccs1	17.5
Cc1ccccc1C1CC(c2ccccc2OC(F)F)Nc2ncnn21 (stereo not shown)	0.671
CSc1ccccc1OCc1cc(C(=O)N(C)CCc2c(C)n[nH]c2C)no1	9.05
Cc1onc(-c2c(Cl)cccc2Cl)c1C(=O)Nc1ccc2c(c1)OCCO2	11.5
Cc1ccc(S(=O)(=O)N/N=C\c2ccc3c(c2)OCO3)cc1C	-0.354
O=C(c1ccncc1)N1c2ccccc2Sc2ccccc21	8.06
Cc1cc(C(=O)OCCO)c(C#N)c(N)n1	21.1
Cl.c1ccc(-c2cc(-c3ccncc3)nc3ccc4ccccc4c23)cc1	7.64
Cc1ccn2cc(-c3ccc(NC(=O)c4ccco4)cc3)nc2c1	-5.16
Cc1sc(NC(=O)Cn2c(=O)oc3ccccc32)nc1-c1ccc(Cl)cc1	15.7
CC1CCC(NC(=O)C2c3ccccc3C(=O)N2CCCN2CCOCC2)CC1 (stereo not shown)	-0.483
Cc1ccccc1COC(=O)c1cc([N+](=O)[O-])ccc1N1CCOCC1	3.4
CC(Oc1cccc(Cl)c1)C(=O)N1CCN(c2ncccn2)CC1 (stereo not shown)	2.38
O=C(NCC(=O)N1CCN(S(=O)(=O)c2ccccc2F)CC1)c1ccc2c(c1)OCO2	18.6
O=C(CSc1ncn(-c2ccccc2)n1)Nc1ccc2c(c1)OCCO2	9.75
O=C(CNC(=O)c1ccccc1F)NCCN1C(=O)S/C(=C\c2ccccc2Cl)C1=O	1.82
Cc1ccc(-c2nc(CS(=O)(=O)CC(=O)N3CCOCC3)c(C)o2)cc1	19.1

Structure (SMILES)	hERG current change (%, negative = inhibition) at 1uM [%]
O=C(Cc1ccc2c(c1)OCCO2)N1CCN(S(=O)(=O)c2cccc(C(F)(F)F)c2)CC1	-11.8
COc1ccc(OCC(=O)N/N=C/c2ccc(O[C@@H]3O[C@H](CO)[C@@H](O)[C@H](O)[C@H]3O)cc2)cc1	10.5
Cc1c(OCC(=O)NCCCN2CCOCC2)ccc2c3c(c(=O)oc12)CCC3	19.2
N#Cc1c(NC(=O)COC(=O)C2CC3C=CC2C3)oc(-c2ccccc2)c1-c1ccccc1 (stereo not shown)	12.5
Cn1ccc(NC(=O)Nc2cccc([N+](=O)[O-])c2)n1	5.63
COC(C(=O)Nc1ccnn1C1CCN(Cc2nccs2)CC1)c1ccccc1 (stereo not shown)	12.3
COc1ccc(S(N)(=O)=O)cc1C(=O)NCC(C)(C)N1CCOCC1	8.54
COc1ccc(C#Cc2c(-c3ccsc3)oc3ccc(-c4cc(OC)c(OC)c(OC)c4)cc23)cc1	-12.5
O=C(Nc1ccc(F)cc1)c1cc(S(=O)(=O)N2CCCCC2)cs1	7.53
Cc1cc(C)c(NC(=O)CSc2nncn2-c2cccnc2)c(C)c1	6.46
NC(=[NH2+])SCc1[nH+]cccc1O.[Cl-]	12.1
CCOc1cc(/C=C2/N=C(c3ccc4c(c3)OCO4)OC2=O)ccc1OC(C)=O	7.12
Cc1ccc(S(=O)(=O)N2CCCC2)cc1C(=O)N1CCC(C)CC1	7.56
O=C(CC(c1ccco1)C1CCCCC1=O)c1ccco1 (stereo not shown)	10
O=S(=O)(Nc1cccc(Oc2ccc(Cl)cc2)n1)c1ccc(F)cc1	7.05
COc1ccc(C2=NOC(C(=O)NCc3ccco3)C2)cc1 (stereo not shown)	-5.25
CCOC(=O)N1CCC(NC(=O)CC(NS(=O)(=O)c2ccc(C)cc2)c2ccco2)CC1 (stereo not shown)	5.99
NS(=O)(=O)c1ccc(CCNC(=O)c2cnc(Cl)c(Cl)c2)cc1	10.8
Cc1nnc(NC(=O)CC(NC(=O)C(F)(F)F)c2ccccc2)s1 (stereo not shown)	12.3
CC(C)OC(=O)c1cc2c(ccn2C)n1CC(=O)N(Cc1ccccc1)c1ccc(F)cc1	-1.23
CCSc1nc2ccccc2c(=O)n1C1CCOC(C)(C)C1 (stereo not shown)	9.41
O=C(O)C1CCCCC1C(=O)Nc1ccc2c(c1)OCO2 (stereo not shown)	14.3

Structure (SMILES)	hERG current change (%, negative = inhibition) at 1uM [%]
Cc1ccc(S(=O)(=O)N2[C@@H](c3ccc(Cl)cc3)C(C(=O)O)=CC[C@H]2c2ccc3c(c2)OCO3)cc1	13.9
CNC(=O)C1Cc2ccccc2CN1S(=O)(=O)c1cccs1 (stereo not shown)	6.54
O=C(NCCSCc1ccco1)c1ccc(CN2CCOCC2)cc1	16.8
Cc1ccc(OCC(=O)Nc2ccc(S(=O)(=O)Nc3ccccn3)cc2)cc1	29.2
Cc1cccc(OCc2nc(-c3ccc(Br)o3)no2)c1	1.97
O=C1OCCC1Sc1nc2ccccc2s1 (stereo not shown)	6.05
COc1ccc(CN2CCSCC2)cc1O	11.7
O=[N+]([O-])c1ccc(N2CCN(CCO)CC2)cc1Sc1nc2ccccc2[nH]1	0.192
O=C(O)CNC(=O)c1ccc2c(c1)OCCO2	5.03
N#C/C(=C\c1c(Oc2ccccc2Cl)nc2ccccn2c1=O)C(=O)NC1CCS(=O)(=O)C1 (stereo not shown)	14.6
Cc1ccc(C23CC4CC(CC(C(=O)NN)(C4)C2)C3)cc1	13
NC(=O)CN1CCN(S(=O)(=O)c2ccc(Br)cc2)CC1	14.2
COc1ccc(CN2CC(C(=O)NCc3ccccn3)CC2=O)cc1 (stereo not shown)	1.04
Cc1cc(C(=O)NCc2nc(-c3ccccc3)no2)ccc1[N+](=O)[O-]	16.9
CC(C)N(c1ccccc1)c1ccc(NC(=O)COC(=O)CCN2C(=O)c3cccc([N+](=O)[O-])c3C2=O)cc1	6.42
[O-][n+]1c2ccccc2c2n1CCN1CCOC21c1ccc(Cl)cc1 (stereo not shown)	-11.2
COc1cc2cnc(-c3ccccc3)c(-c3ccc(C#N)cc3)c2cc1OC	16.7
C/C(=N\NC(=O)c1ccccc1F)c1ccc(C#N)cc1	0.19
O=C(CSc1ccccn1)Nc1nncs1	4.82
COc1cccc(C(=O)Nc2ccc(NC(=O)c3ccco3)nc2)c1	8.96
CCCCOc1ccc(C(=O)Oc2cc(C)[nH]c(=O)c2[N+](=O)[O-])cc1	13.4
O=C1c2ccccc2C(=O)N1OS(=O)(=O)c1ccccc1	11.8

From PMC4336329 (PLoS ONE, 2015)
